Data taken from US20120014957A1 (AbbVie / Abbott, published 2012).

What was measured:
Recombinant Human β-NGF = Recombinant Human β-NGF (human, UniProt P01138 partial chain); assay: cell-based or functional assay
Recombinant Human PlGF = biological target: T1, Recombinant Human PlGF (human, UniProt P49763-2 21-149, limits assumed); assay: SPR (Biacore)
T1 construct: Bought reagent; also called P1GF
T1 sequence (looked up): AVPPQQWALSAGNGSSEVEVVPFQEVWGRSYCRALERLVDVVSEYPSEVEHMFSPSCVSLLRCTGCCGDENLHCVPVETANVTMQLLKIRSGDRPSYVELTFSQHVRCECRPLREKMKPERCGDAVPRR
Method: (§1) The BIACORE assay (Biacore, Inc, Piscataway, N.J.) determines the affinity of antibodies or DVD-Ig with kinetic measurements of on-rate and off-rate constants. Binding of antibodies or DVD-Ig to a target antigen (for example, a purified recombinant target antigen) was determined by surface plasmon resonance-based measurements with a Biacore® 1000 or 3000 instrument (Biacore® AB, Uppsala, Sweden) using running HBS-EP (10 mM HEPES [pH 7.4], 150 mM NaCl, 3 mM EDTA, and 0.005% surfactant P20) at 25° C. All chemicals were obtained from Biacore® AB (Uppsala, Sweden) or otherwise from a different source as described in the text. For example, approximately 5000 RU of goat anti-mouse IgG, (Fcγ), fragment specific polyclonal antibody (Pierce Biotechnology Inc, Rockford, Ill.) diluted in 10 mM sodium acetate (pH 4.5) was directly immobilized across a CM5 research grade biosensor chip using a standard amine coupling kit according to manufacturer's instructions and procedures at 25 μg/ml. Unreacted moieties on the biosensor surface were blocked with ethanolamine. Modified carboxymethyl dextran surface in flowcell 2 and 4 was used as a reaction surface. Unmodified carboxymethyl dextran without goat anti-mouse IgG in flow cell 1 and 3 was used as the reference surface. For kinetic analysis, rate equations derived from the 1:1 Langmuir binding model were fitted simultaneously to association and dissociation phases of all eight injections (using global fit analysis) with the use of Biaevaluation 4.0.1 software. Purified antibodies or DVD-Ig were diluted in HEPES-buffered saline for capture across goat anti-mouse IgG specific reaction surfaces. Antibodies or DVD-Ig to be captured as a ligand (25 μg/ml) were injected over reaction matrices at a flow rate of 5 μl/min. The association and dissociation rate constants, kₒₙ (M⁻¹s⁻¹) and koff (s⁻¹) were determined under a continuous flow rate of 25 μl/min. Rate constants were derived by making kinetic binding measurements at different antigen concentrations ranging from 10-200 nM. The equilibrium dissociation constant (M) of the reaction between antibodies or DVD-Igs and the target antigen was then calculated from the kinetic rate constants by the following formula: KD=koff/kₒₙ. Binding was recorded as a function of time and kinetic rate constants were calculated.

[1] = biological target: T2, Recombinant Human VEGF 165 (human, UniProt P15692-4 27-191); assay: SPR (Biacore)
T2 construct: Bought reagent
T2 sequence (looked up): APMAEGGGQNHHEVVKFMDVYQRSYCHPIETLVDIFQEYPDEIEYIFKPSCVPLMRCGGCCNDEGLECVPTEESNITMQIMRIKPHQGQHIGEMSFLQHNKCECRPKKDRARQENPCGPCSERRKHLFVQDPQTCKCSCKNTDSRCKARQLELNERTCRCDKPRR
Method: as §1

Recombinant Human β-NGF, sequence (P01138 122-241 limits assumed): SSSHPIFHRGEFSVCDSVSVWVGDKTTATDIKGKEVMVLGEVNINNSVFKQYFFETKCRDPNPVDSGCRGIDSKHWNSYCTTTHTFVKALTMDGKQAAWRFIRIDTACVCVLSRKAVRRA

B1: DVD1351 (bispecific antibody, human IgG1, kappa)
heavy: EVQLVESGGGLVQPGGSLRLSCAASGFSLTNNNVNWVRQAPGKGLEWVGGVWAGGATDYNSALKSRFTISRDNSKNTAYLQMNSLRAEDTAVYYCARDGGYSSSTLYAMDAWGQGTLVTVSSASTKGPEVQLVESGGGLVQPGGSLRLSCAASGFSFSSEPISWVRQAPGKGLEWVSSITGKNGYTYYADSVKGRFTISADTSKNTAYLQMNSLRAEDTAVYYCARWGKKVYGMDVWGQGTLVTVSS[here human IgG1 constant region without letters]
light: DIQMTQSPSSLSASVGDRVTITCRASEDIYNALAWYQQKPGKAPKLLIYNTDTLHTGVPSRFSGSGSGTDYTLTISSLQPEDFATYFCQHYFHYPRTFGQGTKVEIKRTVAAPDIQMTQSPSSLSASVGDRVTITCRASQSISSYLAWYQQKPGKAPKLLIYGASSRASGVPSRFSGSGSGTDFTLTISSLQPEDFATYYCQQYMSVPITFGQGTKVEIKRTVAAPSVFIFPPSDEQLKSGTASVVCLLNNFYPREAKVQWKVDNALQSGNSQESVTEQDSKDSTYSLSSTLTLSKADYEKHKVYACEVTHQGLSSPVTKSFNRGEC
Recombinant Human β-NGF
  N-Terminal VD NGF Inhibition Assay EC50: 5.1 pM

B2: DVD1337 (bispecific antibody, human IgG1, kappa)
heavy: EVQLVESGGGLVQPGGSLRLSCAASGFSLTNNNVNWVRQAPGKGLEWVGGVWAGGATDYNSALKSRFTISRDNSKNTAYLQMNSLRAEDTAVYYCARDGGYSSSTLYAMDAWGQGTLVTVSSASTKGPQVQLQESGPGLVKPSETLSLTCTVSGGSVSSGDYYWTWIRQSPGKGLEWIGHIYYSGNTNYNPSLKSRLTISIDTSKTQFSLKLSSVTAADTAIYYCVRDRVTGAFDIWGQGTMVTVSS[here human IgG1 constant region without letters]
light: DIQMTQSPSSLSASVGDRVTITCRASEDIYNALAWYQQKPGKAPKLLIYNTDTLHTGVPSRFSGSGSGTDYTLTISSLQPEDFATYFCQHYFHYPRTFGQGTKVEIKRTVAAPDIQMTQSPSSLSASVGDRVTITCQASQDISNYLNWYQQKPGKAPKLLIYDASNLETGVPSRFSGSGSGTDFTFTISSLQPEDIATYFCQHFDHLPLAFGGGTKVEIKRTVAAPSVFIFPPSDEQLKSGTASVVCLLNNFYPREAKVQWKVDNALQSGNSQESVTEQDSKDSTYSLSSTLTLSKADYEKHKVYACEVTHQGLSSPVTKSFNRGEC
Recombinant Human β-NGF
  N-Terminal VD NGF Inhibition Assay EC50: 17 pM

B3: DVD1331 (bispecific antibody, human IgG1, kappa)
heavy: EVQLVESGGGLVQPGGSLRLSCAASGFSLTNNNVNWVRQAPGKGLEWVGGVWAGGATDYNSALKSRFTISRDNSKNTAYLQMNSLRAEDTAVYYCARDGGYSSSTLYAMDAWGQGTLVTVSSASTKGPQVQLQQSGAELVKPGASVKISCKASGYTFTDYYINWVKLAPGQGLEWIGWIYPGSGNTKYNEKFKGKATLTIDTSSSTAYMQLSSLTSEDTAVYFCVRDSPFFDYWGQGTLLTVSS[here human IgG1 constant region without letters]
light: DIQMTQSPSSLSASVGDRVTITCRASEDIYNALAWYQQKPGKAPKLLIYNTDTLHTGVPSRFSGSGSGTDYTLTISSLQPEDFATYFCQHYFHYPRTFGQGTKVEIKRTVAAPDIVLTQSPDSLAVSLGERVTMNCKSSQSLLNSGMRKSFLAWYQQKPGQSPKLLIYWASTRESGVPDRFTGSGSGTDFTLTISSVQAEDVAVYYCKQSYHLFTFGSGTKLEIKRTVAAPSVFIFPPSDEQLKSGTASVVCLLNNFYPREAKVQWKVDNALQSGNSQESVTEQDSKDSTYSLSSTLTLSKADYEKHKVYACEVTHQGLSSPVTKSFNRGEC
notes: DVD-Ig; also called DVD1331H; DVD1331L
Recombinant Human PlGF
  Kd: 1400 pM
  koff: 0.00028 s⁻¹

B4: DVD1317 (bispecific antibody, human IgG1, kappa)
heavy: EVQLVESGGGLVQPGGSLRLSCAASGFSLTNNNVNWVRQAPGKGLEWVGGVWAGGATDYNSALKSRFTISRDNSKNTAYLQMNSLRAEDTAVYYCARDGGYSSSTLYAMDAWGQGTLVTVSSASTKGPQVQLQQWGAGLLKPSETLSLTCAVYGGSFSGYYWSWIRQPPGKGLEWIGEINHSGSTNYNPSLKSRVTISVETSKNQFSLKLSSVTAADTAVYYCARDKWTWYFDLWGRGTLVTVSS[here human IgG1 constant region without letters]
light: DIQMTQSPSSLSASVGDRVTITCRASEDIYNALAWYQQKPGKAPKLLIYNTDTLHTGVPSRFSGSGSGTDYTLTISSLQPEDFATYFCQHYFHYPRTFGQGTKVEIKRTVAAP[here about 200 residues without letters]
Recombinant Human β-NGF
  N-Terminal VD NGF Inhibition Assay EC50: 1.1 pM

B5: DVD1327 (bispecific antibody, human IgG1, kappa)
heavy: EVQLVESGGGLVQPGGSLRLSCAASGFSLTNNNVNWVRQAPGKGLEWVGGVWAGGATDYNSALKSRFTISRDNSKNTAYLQMNSLRAEDTAVYYCARDGGYSSSTLYAMDAWGQGTLVTVSSASTKGPEVQLVESGGGLVQPGGSLRLSCAASGYTFTNYGMNWVRQAPGKGLEWVGWINTYTGEPTYAADFKRRFTFSLDTSKSTAYLQMNSLRAEDTAVYYCAKYPHYYGSSHWYFDVWGQGTLVTVSS[here human IgG1 constant region without letters]
light: DIQMTQSPSSLSASVGDRVTITCRASEDIYNALAWYQQKPGKAPKLLIYNTDTLHTGVPSRFSGSGSGTDYTLTISSLQPEDFATYFCQHYFHYPRTFGQGTKVEIKRTVAAPDIQMTQSPSSLSASVGDRVTITCSASQDISNYLNWYQQKPGKAPKVLIYFTSSLHSGVPSRFSGSGSGTDFTLTISSLQPEDFATYYCQQYSTVPWTFGQGTKVEIKRTVAAPSVFIFPPSDEQLKSGTASVVCLLNNFYPREAKVQWKVDNALQSGNSQESVTEQDSKDSTYSLSSTLTLSKADYEKHKVYACEVTHQGLSSPVTKSFNRGEC
notes: DVD-Ig; also called DVD1327H; DVD1327L
[1]
  Kd: 3.2 pM
  koff: 1.7e-05 s⁻¹
  kon: 5.2e+06 M⁻¹ s⁻¹

B6: DVD1319 (bispecific antibody, human IgG1, kappa)
heavy: EVQLVESGGGLVQPGGSLRLSCAASGFSLTNNNVNWVRQAPGKGLEWVGGVWAGGATDYNSALKSRFTISRDNSKNTAYLQMNSLRAEDTAVYYCARDGGYSSSTLYAMDAWGQGTLVTVSSASTKGPEVQLVESGGGLVQPGGSLRLSCAASGFTFSIYSMNWVRQAPGKGLEWVSYISSSSSTIYYADSVKGRFTISRDNAKNSLYLQMNSLRDEDTAVYYCARDRGDFDAFDIWGQGTMVTVSS[here human IgG1 constant region without letters]
light: DIQMTQSPSSLSASVGDRVTITCRASEDIYNALAWYQQKPGKAPKLLIYNTDTLHTGVPSRFSGSGSGTDYTLTISSLQPEDFATYFCQHYFHYPRTFGQGTKVEIKRTVAAPDIQMTQSPSSLSASVGDRVTITCQASQDITNYLNWYQQKPGKAPKLLIYDASNLETGVPSRFSGSGSGTDFTFTISSLQPEDIATYNCQQCENFPITFGQGTRLEIKRTVAAPSVFIFPPSDEQLKSGTASVVCLLNNFYPREAKVQWKVDNALQSGNSQESVTEQDSKDSTYSLSSTLTLSKADYEKHKVYACEVTHQGLSSPVTKSFNRGEC
Recombinant Human β-NGF
  N-Terminal VD NGF Inhibition Assay EC50: 14.1 pM
